# In US6730699B2, “Water soluble paclitaxel derivatives” (priority 2001, dated 2004):
# Tested on: paclitaxel-dependent CHO mutant Tax-18 cells
# Details: 6 days at 37° C.
structure (smiles),measurement,value
"CC(=O)O[C@H]1C(=O)[C@@]2(C)[C@H]([C@H](OC(=O)c3ccccc3)[C@]3(O)C[C@H](OC(=O)[C@H](O)[C@@H](NC(=O)c4ccccc4)c4ccccc4)C(C)=C1C3(C)C)[C@]1(OC(C)=O)CO[C@@H]1C[C@@H]2O [Paclitaxel, paclitaxel]",concentrations that support growth of Tax-18 cells,0.05 to 0.2 µM
